Measured values published in the supplement of paper PMC5499739.
Whole data set: some 16,000 sequences, median “Z-score” near -0.37, cut for the highest 2% near 3.1. Some of the results follow.

What follows are sequences tested on RBM10 RRM1-ZnF-RRM2 (GST-tagged construct) (assay: RNAcompete 7-mer binding Z-score; higher = stronger binding preference).
Summary of the method: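 A designed pool of 241 399 RNAs, each up to 41 nt and transcribed from microarray-derived DNA templates, was used at 1.5 nmol with 20 pmol of GST-tagged RBM10 constructs. The mixture, in 1 ml Hepes pH 7.8 buffer with KCl, NaCl, glycerol, DTT, BSA and glutathione Sepharose beads, was held 30 min at 4°C and then washed four times for 2 min at 4°C. Bound RNA was read out by microarray hybridisation, and enrichment of each heptamer motif was scored as a one-sided Z-score over the probes carrying it.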

Sequence | RNAcompete 7-mer binding Z-score
GAUUUCU | -0.73
CUCGCAA | -0.825
AUUUUAU | -0.704
UAGAAUC | -0.446
CCGUGGU | 0.228
GAAUUUG | 0.024
GAGAGGG | 2.75
AUUACUG | -0.493
ACAAUGU | -0.0889
GUAGAAU | 0.53
GAUUUCA | -0.526
CGAUAUG | 0.0167
CACCUUU | -0.963
AUCACCA | -0.559
AGAGGAG | 1.7
CAGAAUA | -0.296
GUUAAUU | -0.337
GUAUUUA | -0.267
CGUUAGA | -0.293
UCCGUGC | -0.759
GCCAAAA | -0.417
AAUAUUC | -0.453
CAGCCGG | -0.264

Sequence | RNAcompete 7-mer binding Z-score
CUCAGGA | -0.22
GUCCGUU | -0.559
AGCCGUU | -0.785
AAUUGAC | -0.103
GUGUCCU | -0.577
CGAUAUC | -0.5
CUCGAGA | -0.515
ACGGUCU | -0.726
UACGGUG | 1.27
GCGUCAG | 0.0604
GACGUAA | 0.246
UCUUAGU | -0.537
GUGGAAU | 2.34
AAUAGGC | 0.924
GCACGGG | 2.3
GGGACUC | 0.825
CGUUCUG | -0.701
CUAAGAC | -0.602
CUUUAAC | -0.89
GCGAGAG | 1.25
UACUGAG | 0.0641
AACCUGA | -0.704
GUCAGGU | 1.01

Sequence | RNAcompete 7-mer binding Z-score
AUACCAA | -0.202
CACUCGU | -0.683
UUUCACU | -0.704
GAACGUC | -0.566
GUAGAAG | 2.33
AUAAAAG | 0.0277
GCCUGGA | -0.541
AACCACG | -0.344
GCCUAAG | -0.526
CGCAAGA | -0.377
AAGCCUG | -0.752
UGCGAAA | -0.078
CGCACGG | -0.0124
GCGAACA | 0.181
CAGCGGG | 2.5
CUAACGG | 0.177
CUUGUGU | -0.792
CCGUAGG | 0.891
CAUCGUC | -0.719
CGAAAAA | -0.326
CUCUAAG | -0.537
CAGGCUA | 0.406
AAGGCUA | 0.851

Sequence | RNAcompete 7-mer binding Z-score
GAGCACA | -0.0161
CGGCAAU | 0.184
UGCAUCC | -0.621
UGUCGAU | -0.406
UGGGUUA | 2.83
UACUCAC | -0.653
UCACAUG | -0.377
AACACUA | -0.402
AGAUAUG | 0.891
GCGGGAU | 2.38
AAAACCU | -0.562
UAGUCCC | -0.653
UCCUAUU | -0.901
AUUUUGA | -0.785
UUAGCGU | -0.541
CUUUUAG | -0.624
UCAUAGU | -0.249
CCUCCGA | -0.836
AACCGUC | -0.792
CUACCAG | -0.748
CAAGCUC | -0.581
CCUUUAG | -0.832
CUCUGAG | -0.697

Sequence | RNAcompete 7-mer binding Z-score
CAGCCAU | -0.861
UAAUAGG | 0.742
GAAAGCC | -0.409
CACUGCG | -0.373
UAAUUAG | -0.311
CGACUGA | -0.406
CCUGGUU | -0.857
CGUCAAC | -0.581
UCACGCA | -0.653
UCAUGAC | -0.653
CGCCGCC | -0.69
UUUGGCG | -0.0561
GCGAGGG | 3.86
CCAUGAA | -0.439
AACGGAU | 1.66
GGCUGCU | -0.278
CUAAUGU | -0.551
CACCGAC | -0.551
AAUUAAA | -0.555
UAGUGCU | -0.329
GUAAUCC | -0.337
UGAAACC | -0.686
UCUAUCC | -0.755

Sequence | RNAcompete 7-mer binding Z-score
GAGAACU | -0.224
GGUUAGA | 2.57
CGGGUCG | 1.62
GGGACUU | 0.884
UAAUCAC | -0.471
UUGAGCA | -0.165
CGCGUAC | -0.573
ACGUUCA | -0.719
CCCGGCA | -0.653
CACCAUC | -0.734
GGCGCCC | -0.482
CAGAUGA | 0.0058
CGAUUAA | -0.493
AUUAGCG | -0.0379
GUGCGUA | 0.483
GCGUACA | 0.104
UAGGCCA | 0.188
GGUCACC | -0.151
CGAAGGA | 1.62
AUCACGG | 0.0131
AUGUCAC | -0.599
UGAGGGC | 2.22
UCCGACC | -0.777

Sequence | RNAcompete 7-mer binding Z-score
AGAGCGA | 0.581
GUUGGGU | 2.75
GGUCCCC | -0.151
ACAAUGC | -0.227
GCUAACC | -0.562
CAGGCUC | -0.424
CGUGCUC | -0.726
GAGAGUC | 0.352
ACCCCAU | -0.643
CAAUCGA | -0.147
AAUACGG | 0.931
GGAGGAG | 2.84
AAGGCAG | 2.66
GCCGCCG | -0.435
CGAAUAU | -0.395
GGUAUGA | 1.89
AGUAAGC | -0.0233
UGUAGGC | 0.512
AGUCAAG | 0.232
CCCCGGG | 0.232
GAUUUUC | -0.686
GGACCAU | -0.00877
CACGGCC | -0.624

Sequence | RNAcompete 7-mer binding Z-score
UCAUUCU | -0.752
ACAAAUC | -0.679
UUGAUAC | -0.457
AGCACAC | -0.522
ACAUUCU | -0.89
CCCGCUC | -0.65
CCCGUCG | -0.661
CCCAAGA | -0.653
AACAAAC | -0.213
CAGCCCA | -0.522
AGCCGUG | -0.395
UUGUCGC | -0.766
AAAGUUC | -0.646
AGUGAGG | 3.11
UUCUGCG | -0.577
AACGGAA | 1.91
UCGGGGA | 1.7
UUUCUUC | -0.679
UUGGCUA | -0.144
UAAUUGG | 0.49
UUCUCCA | -0.755
GUAGAUC | -0.165
CUCAAUA | -0.712
